# In all, about 33,000 sequences were measured (“E-score (-0.5 to 0.5)”: median about -0.054, highest 2% from about 0.35 on). Some of the results follow.
# Biological target: T1, Stb5 (UniProt P38699)
# T1 sequence: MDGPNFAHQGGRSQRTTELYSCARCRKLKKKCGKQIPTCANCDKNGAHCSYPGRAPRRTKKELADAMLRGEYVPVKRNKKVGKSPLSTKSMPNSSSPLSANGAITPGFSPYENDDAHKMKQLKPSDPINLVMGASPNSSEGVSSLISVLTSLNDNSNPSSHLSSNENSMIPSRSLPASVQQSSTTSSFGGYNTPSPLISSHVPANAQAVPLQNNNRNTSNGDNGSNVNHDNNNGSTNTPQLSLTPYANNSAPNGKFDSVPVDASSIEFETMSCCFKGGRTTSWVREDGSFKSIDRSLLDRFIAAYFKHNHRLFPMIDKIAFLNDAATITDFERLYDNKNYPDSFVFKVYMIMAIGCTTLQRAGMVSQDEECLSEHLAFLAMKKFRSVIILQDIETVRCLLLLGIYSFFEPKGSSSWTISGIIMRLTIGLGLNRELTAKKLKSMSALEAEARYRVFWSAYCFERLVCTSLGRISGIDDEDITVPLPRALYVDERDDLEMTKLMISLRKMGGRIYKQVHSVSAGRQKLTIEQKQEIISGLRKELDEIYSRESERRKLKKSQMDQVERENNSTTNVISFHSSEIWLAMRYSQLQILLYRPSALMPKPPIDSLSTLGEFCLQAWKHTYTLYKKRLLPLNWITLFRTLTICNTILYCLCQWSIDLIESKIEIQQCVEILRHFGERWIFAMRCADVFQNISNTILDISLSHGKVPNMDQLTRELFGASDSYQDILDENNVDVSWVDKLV
# Experiment: PBM E-score (8-mer binding enrichment) (E-score (-0.5 to 0.5)); higher = stronger / more preferred TF binding; most listed sequences are background and not binding sites
# Details: protein concentration: 200 nM; construct: GST-full length
# Method in brief: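 E-scores (a modified Wilcoxon-Mann-Whitney statistic) were assigned by the Universal PBM Analysis Suite to every ungapped eight-base word pooled with its reverse complement. The input came from universal all-10-mer Agilent arrays made double-stranded by primer extension and probed with GST-tagged yeast transcription factors at about 100-200 nM. Fluorescent anti-GST detected bound protein, and masliner normalised the scans.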
row,Sequence,PBM E-score
1,CATTACGA,-0.167
2,AACGATAA,-0.0423
3,AAAGGATC,-0.0912
4,CGTCATCC,-0.067
5,CCTGATCA,-0.0914
6,ATCTCATC,-0.0881
7,AGCCTCAT,-0.229
8,AAGGACTT,0.064
9,CATGGTTA,-0.136
10,CGAACCCA,-0.103
11,AAACTCTC,-0.0106
12,CTGTACGA,-0.123
13,AGTGTGAG,-0.26
14,CGCCACCG,0.108
15,CAAATCCA,-0.178
16,GTTTAGGA,0.131
17,ATTGGCGA,-0.149
18,ACCAGTAG,-0.217
19,CTTGGATA,0.12
20,AAGGGTCT,-0.149
21,AATCACCT,0.058
22,AGAGCGGA,0.312
23,CCGTATGC,0.185
24,AACCTAAG,-0.111
25,GTCCATGA,-0.0776

row,Sequence,PBM E-score
1,GCGCGACC,-0.0254
2,CAGAAGGA,-0.132
3,AACAGATG,-0.269
4,TTCTTAAA,-0.168
5,AGCCCTCG,-0.261
6,CAGTTAAA,-0.0696
7,TACCTAGA,-0.0851
8,AAACAAAA,-0.0307
9,CCCGCAAA,0.0474
10,ACAAAAAA,-0.0653
11,AACTAGGG,-0.246
12,CTCGCCTA,-0.117
13,CACTGTCA,-0.352
14,CAGGAAAA,-0.0422
15,CGCGAGAA,0.124
16,AAAGACAT,-0.187
17,TACAAATA,-0.0619
18,AGCCCGCT,0.317
19,ATACGTCG,0.137
20,CGACCATA,0.0311
21,GGTATTAA,0.404
22,AGACTGAG,-0.217
23,CATTTGTA,-0.114
24,CGGACCAC,0.134
25,AGGGGCAT,-0.248

row,Sequence,PBM E-score
1,AAAGTTAC,-0.18
2,CGAACTAA,-0.266
3,CGCCTGCA,-0.0516
4,ACGGACTG,0.233
5,AAAAACCA,0.109
6,GACGACGA,-0.0925
7,GGAAATCC,0.238
8,CATGTGAG,-0.363
9,GCGATAAC,0.105
10,AATGACCT,-0.0215
11,ATTGGAAC,-0.00847
12,CTCTGTTA,-0.0235
13,GTGTGGAA,-0.0163
14,CCATGGAA,-0.132
15,TAGTATCA,-0.0159
16,GAAAGGAA,0.0607
17,AGGTGATG,-0.0285
18,CTACATCA,-0.153
19,GCACTGTA,-0.156
20,CTGACCAG,-0.284
21,AGCGAGAG,-0.135
22,ATAGACGG,0.133
23,AGTAGAGG,-0.316
24,TAACTGTA,-0.26
25,GCCACGAC,0.134

row,Sequence,PBM E-score
1,AGTTACGC,-0.0614
2,AAACTGAA,-0.004
3,ACGACCGG,0.232
4,ATTATGTG,0.0509
5,ACTTATTG,-0.0331
6,AAGGGTTC,-0.0836
7,ATGTCGTC,-0.108
8,ACTTCGCC,-0.13
9,CCTTTACA,-0.195
10,CCACGATA,-0.0459
11,AAGGATAC,-0.088
12,CGAGTTCA,-0.308
13,GGGCCTAA,0.275
14,ACCTCGTG,-0.221
15,CTCTAATA,-0.188
16,AACAGCCA,-0.168
17,AATACAGT,-0.121
18,CGAACGTC,-0.113
19,AAAGGGTT,0.0114
20,AAGTTTAA,-0.0638
21,GACCTGCA,-0.147
22,ACATACAA,-0.04
23,CTCACGTA,-0.109
24,AAACCCTG,-0.0309
25,TACCCCAA,-0.157

row,Sequence,PBM E-score
1,CCCCAGCG,-0.0131
2,CACTCGGG,-0.0313
3,CATACAAA,-0.0333
4,AACGAGAC,-0.0851
5,AAAATTAG,0.0305
6,AGGTGCTG,-0.146
7,AGATTGCC,0.0663
8,CGACAATA,0.0713
9,CATCCGTC,0.103
10,TCGCATAA,-0.0806
11,GTGATACA,0.0193
12,ATTAGCCC,0.273
13,ATGCCTGA,-0.175
14,GTCCTTCA,0.0386
15,CTCCCAAG,-0.215
16,ACCTAATC,-0.095
17,AAAGATAT,-0.0472
18,TCGCAGCA,-0.288
19,CCAGATTC,-0.00466
20,CACGCCCG,0.0876
21,ATGTGGAG,0.0382
22,GAATGCCC,0.0727
23,GAAACATC,0.0249
24,ATTGCGCG,0.194
25,ATCATTTA,-0.133

row,Sequence,PBM E-score
1,GACACGGC,0.175
2,GGAAGCAA,-0.104
3,CATAAGGC,0.126
4,ACCGGGTG,0.182
5,ACCTGACG,-0.204
6,ACCGTGAT,0.228
7,GCACCCCC,-0.187
8,CTGACCAA,-0.176
9,AGCAACCT,-0.117
10,GGGGAACC,-0.106
11,TGGTCACA,-0.157
12,AGCAGTAC,-0.0288
13,CTCTCGTA,-0.267
14,ACCACGTC,-0.0616
15,ACCACATC,-0.229
16,AACTTTGG,-0.251
17,ATGTTGAG,-0.154
18,GCAATTCC,-0.0041
19,CCTCAGAC,0.0202
20,GGGGTACA,0.226
21,ACAATACC,0.13
22,CCAAATCG,0.0509
23,AACAGGTG,-0.162
24,ACTACCGG,0.279
25,GCAATGGA,-0.0757

row,Sequence,PBM E-score
1,AAACAAGT,-0.0683
2,CTGGGGCC,-0.0638
3,AGCCCCGC,0.421
4,GATGCCCC,-0.0868
5,AAGTGGCA,-0.214
6,ATTGACCA,-0.0516
7,TCGCAACA,-0.193
8,GATTAGCA,-0.0315
9,CTGCCTCA,-0.16
10,GTTAAACA,0.101
11,CGCTAATA,0.278
12,CACCATTA,-0.0162
13,ACTGCTTA,-0.215
14,ATATGACG,0.0678
15,CATCTCGG,0.106
16,AGAGCCAG,-0.222
17,AAATCGTC,0.0407
18,ACCACAGA,-0.0655
19,AACGCTTC,-0.22
20,AACCACCA,-0.124
21,ACCGCGGG,0.317
22,CTAAAGAA,-0.0255
